# Assay results as given in PubChem BioAssay AID485294 (National Center for Advancing Translational Sciences (NCATS), 2010).
# The whole screen tested about 370,000 compounds, of which about 150 (0.041%) were called active. Inconclusive means that the source gave no clear call. Such entries were picked first, then a sample of the others. Calls follow the shape of the dose curve; as a rule, active = well fitted inhibition curve with a large enough effect; inconclusive = small, poorly fitted or top-dose-only effect; inactive = flat fitted curve, though single readings scatter. Potencies of inconclusive entries are left out as doubtful fits.
# Biological target: Beta-lactamase (Escherichia coli (strain K12)) (UniProt P00811)
# Test: qHTS Inhibitors of AmpC Beta-Lactamase (assay with detergent); also: nearly all actives have a fitted effect of over 25% in size
# Details: AmpC hydrolysis of nitrocefin, absorbance 480 nm, 0.01% Triton; series mostly up to 114 µM
# In short: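 20 mM phosphate pH 7.0 + 0.01% (detergent screen) or 0.0001% Triton X-100; 5.3 nM AmpC reagent; cpd preinc 15 min RT; nitrocefin (800 uM stock) to start; A480 q20 s × 4 min; Activity was normalised to no-enzyme and no-compound control wells.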
# Potency is read from the fitted curve at half-maximal effect; tags tell the direction and shape of the fitted curve.
# Chain of UniProt P00811 (P00811 whole entry, looked up): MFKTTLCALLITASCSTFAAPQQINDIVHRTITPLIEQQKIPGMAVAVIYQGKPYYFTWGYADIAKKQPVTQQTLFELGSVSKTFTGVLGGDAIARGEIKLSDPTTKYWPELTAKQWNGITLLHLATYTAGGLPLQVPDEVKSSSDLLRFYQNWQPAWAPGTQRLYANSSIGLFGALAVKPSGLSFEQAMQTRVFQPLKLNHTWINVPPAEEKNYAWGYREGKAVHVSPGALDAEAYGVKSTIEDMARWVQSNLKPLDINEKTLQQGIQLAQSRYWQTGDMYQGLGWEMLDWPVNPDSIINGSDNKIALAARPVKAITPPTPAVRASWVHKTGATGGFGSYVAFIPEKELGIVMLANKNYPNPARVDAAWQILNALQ
row,Compound,Potency
1,Cn1cc(-c2cccc(Cl)c2)cc(C#N)c1=O,"inconclusive [inhibitor, full curve]"
2,CS(=O)(=O)N(CC(=O)N1CCCCCC1)Cc1ccc(Cl)cc1,"inconclusive [inhibitor, full curve]"
3,O=C1C=C(Nc2ccccc2)C(=O)c2ccccc21,"inconclusive [inhibitor, full curve]"
4,CCOc1cc(C2C(C#N)=C(N)Oc3n[nH]c(C)c32)ccc1OCCN1CCOCC1 (centres undefined),"inconclusive [inhibitor, full curve, poor fit]"
5,Cc1cc(NC(=O)COC(=O)c2ccc(OC(F)(F)F)cc2)no1,"inconclusive [inhibitor, full curve, poor fit]"
6,CCc1ccc(-n2c(=O)c3c4c(sc3n(CC(=O)NC(C)CC)c2=O)CCCC4)cc1 (centres undefined),inactive
7,COCCCNC(=O)CSc1nc(-c2ccccc2)[nH]c1-c1ccc(C)cc1,inactive
8,CS(=O)(=O)N1CCCC(C(=O)Nc2ccccc2Cl)C1 (centres undefined),"inconclusive [inhibitor, full curve, poor fit]"
9,COc1cccc(NC(=S)N(CCc2c(C)[nH]c3ccc(C)cc23)Cc2cccs2)c1,inactive
10,COc1ccc(-c2cnc(C)o2)cc1S(=O)(=O)Nc1ccc(C)c(N(C)C)c1,inactive
11,O=C1CC(c2ccc(Cl)cc2)Sc2nc(-c3ccc(F)cc3)nn21 (centres undefined),inactive
12,CCN(CC)c1ccc(C(=O)OCC(=O)Nc2cccc(S(=O)(=O)NC3=NCCCCC3)c2)cc1,inactive
13,Cc1cccc(N2CC(=O)N(c3cccc(C)c3)CC2=O)c1,"inconclusive [inhibitor, full curve, poor fit]"
14,Nc1nnc(SCC(=O)NC2CCCCCCC2)s1,"inconclusive [inhibitor, full curve]"
15,COc1ccc(-c2nc(NC(=O)c3ccc(OCC(=O)Nc4ccc(F)cc4)c(OC)c3)sc2C)cc1,"inconclusive [inhibitor, partial curve, poor fit]"
16,O=C(CCc1ccccc1)NC1CC(=O)N(c2ccccc2)C1 (centres undefined),inactive
17,CC(C)(C)N1C(=O)c2ccc(C(=O)Nc3cc(C(=O)O)cc(C(=O)O)c3)cc2C1=O,"inconclusive [inhibitor, single point]"
18,Cn1ccc2cc(-c3ccc4ncnc(NCc5cccnc5)c4c3)ccc21,"inconclusive [inhibitor, full curve]"
19,O=[N+]([O-])c1ccc(C2Nc3cccc4cccc(c34)N2)cc1,"inconclusive [inhibitor, full curve, poor fit]"
